# PubChem BioAssay AID602310 (National Center for Advancing Translational Sciences (NCATS), 2012)
# Hit rate of the full screen: of about 410,000 compounds, about 310 (0.076%) were called active. This list was built around the results that the source calls inconclusive (neither active nor inactive); the mix of calls is not that of the screen. The call rests on the fitted dose curve; in most records, active means well fitted curve in the direction sought with a large enough effect; inconclusive means small, poorly fitted or top-dose-only effect; inactive means flat fitted curve, though single readings scatter. A potency beside an inconclusive call is a rough fit, not a confirmed value.
# Molecular target: DNA dC->dU-editing enzyme APOBEC-3G (Homo sapiens) (UniProt Q9HC16)
# Test: qHTS for Inhibitors of Vif-A3G Interactions: qHTS; further: nearly all actives have a fitted effect of over 60% in size
# Conditions: HeLa A3G-eYFP + Vif (tagged APOBEC3G with the HIV-1 protein that degrades it), YFP fluorescence, overnight; series mostly up to 46.1 µM
# Method in brief: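 HeLa cells stably expressing Vif and C-terminally eYFP-tagged A3G, seeded overnight at 37 deg C, then exposed to compound by pintool overnight at 37 deg C. Rise in yellow fluorescence (Ex 488/Em 500-530, Acumen) marks blocked Vif-driven A3G degradation.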
# Potency means the concentration at half of the fitted maximal effect; tags describe the fitted curve by direction and shape.
# Sequence of UniProt Q9HC16 (Q9HC16 whole entry, looked up): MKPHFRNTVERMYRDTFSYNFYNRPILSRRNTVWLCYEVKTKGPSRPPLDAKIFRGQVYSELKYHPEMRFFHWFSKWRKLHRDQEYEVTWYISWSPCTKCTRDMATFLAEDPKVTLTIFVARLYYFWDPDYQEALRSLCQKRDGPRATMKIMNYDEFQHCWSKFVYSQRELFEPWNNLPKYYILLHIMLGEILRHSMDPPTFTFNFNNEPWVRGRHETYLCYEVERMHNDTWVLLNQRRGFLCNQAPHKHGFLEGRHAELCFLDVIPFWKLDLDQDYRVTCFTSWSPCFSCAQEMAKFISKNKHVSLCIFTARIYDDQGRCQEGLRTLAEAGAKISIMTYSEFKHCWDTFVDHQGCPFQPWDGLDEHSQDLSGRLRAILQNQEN
row,SMILES,Potency
1,Cc1cccc(N2CCN(Cc3cn(C)nc3-c3ccccc3F)CC2)n1,"inconclusive: 7.08 µM [inhibitor, partial curve, poor fit]"
2,O=C(CC1SC(=O)N(c2ccccc2)C1=O)Nc1ccc(Br)cc1 (stereo not drawn),inactive
3,CCc1nc2c(OCc3ccc(Cl)cc3Cl)cccn2c1N(C=O)Cc1ccc(OC)cc1,inactive
4,CSCCOC(=O)COc1ccc(/C=N/NC(=O)c2nn(C)cc2Cl)cc1,inactive
5,COC(=O)N1C(=O)[C@](c2ccc(Cl)cc2)(C(C)C)N1C(=O)OC,"inconclusive: 25.1 µM [inhibitor, single point]"
6,Cc1ccc(O)c(C(=O)c2cnc3c(c2)CN(C)C(=O)N3)c1,"inconclusive: 7.94 µM [inhibitor, partial curve, poor fit]"
7,COCc1nc2ccccc2n1Cc1ccccc1C,"inconclusive: 12.6 µM [inhibitor, single point]"
8,O=C(Nc1ccc2c(c1)OCO2)c1ccc(NC2CC2)c([N+](=O)[O-])c1,"inconclusive: 12.6 µM [inhibitor, partial curve]"
9,CCCCOc1ccccc1C1CC(=O)NC2=C1C(=O)CCC2 (stereo not drawn),"inconclusive: 0.631 µM [inhibitor, full curve, poor fit]"
10,N/C(=N\OC(=O)c1cc([N+](=O)[O-])ccc1Cl)c1ccccn1,"inconclusive: 35.5 µM [inhibitor, single point]"
11,Cc1ccc(OCC(=O)O/N=C(\N)Cc2ccc(Cl)cc2)cc1,inactive
12,CCOc1cc(Br)c(/C=C2/C(=O)N(C)C(=S)N2CC(=O)OC)cc1OC,inactive
13,Cc1ccccc1Oc1cc(-n2ncc(Cl)c(Cl)c2=O)ncn1,"inconclusive: 2.51 µM [inhibitor, full curve, poor fit]"
14,COc1ccc2c(-c3ccccc3)cc(SCC(N)=O)nc2c1,"inconclusive: 15.8 µM [inhibitor, single point]"
15,Cc1cc(Br)ccc1NC(=O)CNC(=O)Cn1ncc(Cl)c(Cl)c1=O,"inconclusive: 10 µM [inhibitor, partial curve, poor fit]"
16,COC(=O)c1cccc(NS(=O)(=O)c2ccc(OC)cc2)c1C,"inconclusive: 7.94 µM [inhibitor, partial curve, poor fit]"
17,O=C(c1ccncc1)N1N=C(c2ccc(Br)cc2)CC1c1ccccc1O (stereo not drawn),inactive
18,Cc1ccc(CNC(=O)c2ccc(N3CCC4(CC3)CC(c3cccc(Br)c3)=NO4)c(NC(=O)c3ccc(Br)cc3)c2)cc1,inactive
19,C[n+]1ccc(/C=C/c2ccc(C=S)cc2)c2ccccc21,"inconclusive: 22.4 µM [inhibitor, single point]"
20,COc1cc(-c2nnc(SCC(=O)O)n2-c2ccccc2)cc(OC)c1OC,inactive
21,Cc1ccc(-n2ncc(Br)c(Br)c2=O)cc1,"inconclusive: 22.4 µM [inhibitor, single point]"
22,COc1cc(-c2nc3ccccn3c2Nc2ccccc2C)ccc1O,"inconclusive: 15.8 µM [inhibitor, single point]"

row,SMILES,Potency
1,CCN1CCN(c2ncc3c(n2)CC(c2cc(OC)c(OC)c(OC)c2)CC3=O)CC1 (stereo not drawn),"inconclusive: 4.47 µM [inhibitor, partial curve]"
2,C[C@@H]1C[C@H]2[C@@H]3CCC4=CC(=O)C=C[C@]4(C)[C@@]3(Cl)[C@@H](O)C[C@]2(C)[C@@]1(OC(=O)c1ccco1)C(=O)CCl,"inconclusive: 35.5 µM [inhibitor, single point]"
3,COc1ccc(OC)c(C2c3c(-c4ccc(Br)cc4)n[nH]c3C(=O)N2c2ccc(Cl)cc2)c1 (stereo not drawn),"inconclusive: 35.5 µM [inhibitor, single point]"
4,CC1=Nc2ccccc2/C1=C/c1sc(=N)n(-c2nccs2)c1O,active: 12.6 µM
5,CCc1nc2c(OCc3cc(Cl)cc(Cl)c3)cccn2c1N(C=O)Cc1ccc(OC)cc1,"inconclusive: 12.6 µM [inhibitor, single point]"
6,CNc1cncc(-c2ccc(NS(C)(=O)=O)cc2)n1,"inconclusive: 3.55 µM [inhibitor, full curve, poor fit]"
7,Cc1cccc(NC(=O)c2ccc([N+](=O)[O-])o2)n1,inactive
8,CCOC(=O)c1sc2nc(CC(=O)OC)nc(NCc3ccco3)c2c1C,"inconclusive: 10 µM [inhibitor, partial curve, poor fit]"
9,Cc1cccc(CCNC(=O)C2CCC(CNS(=O)(=O)c3c(C)cc(C)cc3C)CC2)c1 (stereo not drawn),inactive
10,Cc1ccc(C(=O)c2cc([N+](=O)[O-])ccc2N2CCCCC2)cc1C,"inconclusive: 0.562 µM [inhibitor, full curve, poor fit]"
11,CC/C(C)=N/NC(=O)c1[nH]c2ccc(C)cc2c1-c1ccccc1,"inconclusive: 35.5 µM [inhibitor, single point]"
12,CCOc1ccccc1NC1=CC(=O)CC(c2ccccc2)C1 (stereo not drawn),"inconclusive: 10 µM [inhibitor, partial curve]"
13,N#CC1=C(N)Oc2cc(O)ccc2C1c1cccnc1 (stereo not drawn),inactive
14,Cc1ncc(CO)c(/C=N/NC(=S)Nc2ccc(Cl)c(Cl)c2)c1O,inactive
15,CCN(CC)C(=O)Cn1c(=O)n(-c2ccc(Cl)cc2)c(=O)c2c3c(sc21)CCCCC3,inactive
16,O=[N+]([O-])c1ccc(Sc2cccc[n+]2[O-])c2nonc12,"inconclusive: 5.62 µM [inhibitor, single point]"
17,COc1ccc(CNc2nc(NCc3ccc(OC)cc3)c3ncn(C4CCCC4)c3n2)cc1,"inconclusive: 1.26 µM [inhibitor, full curve, poor fit]"
18,NC(=S)N/N=C\c1ccc(-c2cccc(Cl)c2Cl)o1,"inconclusive: 12.6 µM [inhibitor, partial curve, poor fit]"
19,COc1cc(N=Nc2ccc3ccccc3c2)ccc1O,inactive
20,O=C(Cc1ccc(-n2c(=O)c3ccccc3n(Cc3ccccc3F)c2=O)cc1)NCC1CCCO1 (stereo not drawn),"inconclusive: 5.62 µM [inhibitor, single point]"
21,CC1=NOC(=O)/C1=C\c1ccc(-c2cccc(Cl)c2)o1,"inconclusive: 31.6 µM [inhibitor, single point]"
